Test results taken from PubChem BioAssay AID445 (National Center for Advancing Translational Sciences (NCATS), 2006).
The campaign covered roughly 110,000 compounds. About 40 (0.04%) were called active. The inconclusive results got no clear call from the source; some entries with a clear call stand among them for comparison. Calls follow the shape of the dose curve; as a rule, active = well fitted curve in the direction sought with a large enough effect in the signal ratio (not every such curve was filed as active); inconclusive = small, poorly fitted or top-dose-only effect, or a change in a side signal; inactive = flat fitted curve, though single readings scatter; the % refers to the signal ratio. Potencies beside an inconclusive call are fits to weak or partial responses and may not hold up.

Test: IkB Signaling;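 as to IkBa stabilization activation: 0% = basal untreated cells and 100% = reference inhibitor full response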
Details: ABC-DLBCL IkBa-CBG/CBR dual luciferase ratio (green luciferase fused to IkBa over red control in OCI-Ly3 lymphoma cells), 4 h; IkBa stabilization activation: at 57.1 µM (top of the series), scaled: untreated 0%, proteasome inhibitor 100% unless noted
Procedure, shortened: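 Curves were fitted separately to fusion (green), unfused (red) and ratio luminescence, then classed by r2, magnitude and activity. Cells: OCI-Ly3, 4 h compound plus doxycycline at 37C; 10 uM MG-132 defined full response.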
Potency is read from the fitted curve at half-maximal effect.

| SMILES | IkBa stabilization activation | Potency |
| --- | --- | --- |
| COc1ccc(/C=C(\C#N)C(N)=O)cc1OC | inactive: -1.42% [at 11.4 µM, scaled: untreated 0%, proteasome inhibitor 100%] | – |
| CN(C)c1ncc2nc(-c3ccccc3)c(=O)n(C)c2n1 | inactive: -3.44% [at 11.4 µM, scaled: untreated 0%, proteasome inhibitor 100%] | – |
| COC(=O)C(CC(=O)c1ccc(Br)cc1)n1ccnc1 (stereo unspecified) | inconclusive: 3.08% [signal inhibitor] | – |
| Nc1ncnc2c1ncn2CCCCC(=O)O | inactive: -0.39% [at 11.4 µM, scaled: untreated 0%, proteasome inhibitor 100%] | – |
| CC(C)Oc1ccc(C(=O)Nc2ccc3c(c2)CCCN3C(=O)c2cccs2)cc1 | inconclusive: 3.85% [signal inhibitor] | – |
| O=C(Cn1cc(SCc2ccc(C(F)(F)F)cc2)c2ccccc21)N1CCCCCC1 | inconclusive: -3.04% [signal inhibitor] | – |
| c1ccc(C2=NCCCN2)cc1 | inactive | – |
| Cc1occc1C(=O)Nc1cc(C(C)(C)C)on1 | inactive | – |
| CN(C)c1ccc(-c2nccc(Nc3ccc(F)cc3)n2)cc1 | inactive: -3.68% [at 11.4 µM, scaled: untreated 0%, proteasome inhibitor 100%] | – |
| O=C(CSc1ccccc1)NCc1ccc2c(c1)CCN2C(=O)c1ccc(Cl)cc1 | inactive | – |
| CC(C)(C)OC(=O)N1CCC(c2c(C(=O)NC3CCCCC3)cnn2-c2cccc(F)c2)CC1 | inconclusive: 1.52% [signal inhibitor] | – |
| O=C1C(Cl)=C(Nc2ccc(S(=O)(=O)Nc3ccccn3)cc2)C(=O)c2ccccc21 | – | active: 6.31 µM |
| Cc1cccc(C(=O)Nc2cccc(C(=O)OCc3cc(=O)n4nc(C(C)C)sc4n3)c2)c1 | inconclusive: 13.7% [signal inhibitor] | – |
| CC(NC(=O)c1ccc(NC(=O)c2nsc3ccccc23)cc1)c1ccccc1 (stereo unspecified) | – | inconclusive: 1.58 µM [signal inhibitor, partial curve] |
| O=C(Nc1ccccc1)N(Cc1ccc2c(c1)OCO2)Cc1nc2ccccc2c(=O)[nH]1 | inconclusive: 1.34% [signal inhibitor] | – |
| O=C(COc1ccccc1)NCc1ccc2c(c1)CCN2C(=O)c1ccccc1 | inconclusive: -1.79% [signal inhibitor] | – |
| COc1ccc(OC)c(S(=O)(=O)N2Cc3ccccc3CC2C(=O)Nc2nccs2)c1 (stereo unspecified) | inconclusive: 13.8% [signal inhibitor] | – |
| CN1/C(=C\P(=O)(N(C)C)N(C)C)C(C)(C)c2ccccc21 | inactive | – |
| COc1ccc(-c2cc(NCc3ccccn3)n3ncnc3n2)cc1 | inconclusive: 9.11% [signal activator] | – |
| Cc1ccc(C)c(Nc2nc(-c3ccccc3)c3cc(Br)ccc3n2)c1 | inconclusive: 7.84% [signal inhibitor] | – |
| COc1ccc(CCNC(=O)CCCCn2c(=O)c3ccccc3n(CC(=O)Nc3ccc(C)cc3C)c2=O)cc1OC | inconclusive: -3.34% [signal inhibitor] | – |
| CCN(CCNC(=O)CS(=O)(=O)Cc1nc(-c2cccc(OC)c2)oc1C)c1ccccc1 | inconclusive: 15.9% [signal inhibitor] | – |

| SMILES | IkBa stabilization activation | Potency |
| --- | --- | --- |
| O=C(Nc1cccc(Cl)c1)c1cc(-c2ccc3c(c2)OCCO3)on1 | – | inconclusive: 20 µM [signal inhibitor, partial curve] |
| CCCn1c(N2CCN(CC(=O)c3c(C)n(C)c4ccccc34)CC2)nc2c1c(=O)[nH]c(=O)n2C | inactive | – |
| Cc1nnc(N2CCCC(C(=O)Nc3cccc(C(F)(F)F)c3)C2)c2nn(-c3ccccc3)c(C)c12 (stereo unspecified) | inconclusive: -3.84% [signal inhibitor] | – |
| Cc1cccc(N(C)C(CNS(=O)(=O)c2ccccc2)c2ccccc2)c1 (stereo unspecified) | inconclusive: -0.163% [signal inhibitor] | – |
| CCN(CC)CCNC(=O)C(=O)NCC(c1cccnc1)N1CCN(c2ccccc2)CC1 (stereo unspecified) | inconclusive: -2.43% [signal inhibitor] | – |
| CCC(=O)c1ccc(OCC(O)Cn2c(C)nc3ccccc32)cc1 (stereo unspecified) | inconclusive: 4.77% [signal inhibitor] | – |
| CC(C)S(=O)(=O)c1oc(-c2ccc(F)cc2)nc1S(=O)(=O)c1ccccc1 | inconclusive: -5.9% [signal inhibitor] | – |
| CCOC(=O)c1ccccc1NS(=O)(=O)c1ccc(N2CCCCS2(=O)=O)cc1 | inconclusive: 0.569% [signal inhibitor] | – |
| CCOc1ccc(-n2nc(CO)c(C(=O)NCc3cccnc3)n2)cc1 | inconclusive: 1.86% [signal inhibitor] | – |
| COc1cccc(N2CCN(C(=O)c3cc4c(=O)n(Cc5ccccc5)ccc4nc3C)CC2)c1 | inconclusive: 2.07% [signal inhibitor] | – |
| Cc1cccn2c(=O)c(C(=O)NCc3ccccc3Cl)c(O)nc12 | inconclusive: -1.62% [signal inhibitor] | – |
| Cc1ccc(NC(=O)CC2SC3=NCCN3C2=O)cc1 (stereo unspecified) | – | inconclusive: 20 µM [signal inhibitor, partial curve] |
| COc1cc(C)ccc1OCCCn1c(-c2ccc(Cl)cc2)nc2ccccc2c1=O | inconclusive: 5.14% [signal inhibitor] | – |
| Cc1cccc(NC(=O)c2sc3nc4c(cc3c2N)CCCCCC4)c1C | – | active: 2.51 µM |
| c1ccc(Nc2nc(-c3cccnc3)nc3ccccc23)cc1 | inactive: -5.75% [at 11.4 µM, scaled: untreated 0%, proteasome inhibitor 100%] | – |
| COc1ccc(-n2nc(C(=O)Nc3ccc(Cl)cn3)c3c4ccccc4n(C)c3c2=O)cc1Cl | inconclusive: 3.58% [signal inhibitor] | – |
| Cc1ccc(CCNC(=O)c2cc(Nc3ccc(C)c(C)c3)nc3ccccc23)cc1 | inconclusive: -1.22% [signal inhibitor] | – |
| CC(C)C1C(=O)Nc2ccc(S(=O)(=O)NCc3ccc(Cl)cc3)cc21 (stereo unspecified) | inconclusive: -2.32% [signal inhibitor] | – |
| Cc1ccc(NC(=O)CSc2c3c(nc4ccccc24)CCCC3)cc1F | inconclusive: 6.07% [signal inhibitor] | – |
| NC(=O)c1nsnc1-c1ccccc1O | inconclusive: 17.6% [signal inhibitor] | – |
| COc1ccc(C)cc1NC(=O)c1cc2c(C)nc3ccccc3c2o1 | inactive | – |
| CC(=O)c1cccc(NC(=O)c2c(-c3ccccc3)c(-c3ccccc3)nn(C)c2=O)c1 | inconclusive: 1.77% [signal inhibitor] | – |

| SMILES | IkBa stabilization activation | Potency |
| --- | --- | --- |
| CN(Cc1ccccc1)c1ccc(-c2nc(-c3ccco3)no2)cc1[N+](=O)[O-] | inactive | – |
| Cc1cc(=O)n(CC(=O)Nc2ccc([N+](=O)[O-])cc2)c(-n2nc(C)cc2C)n1 | inactive | – |
| COc1ccc(CCN2C(=O)c3[nH]nc(-c4ccccc4O)c3C2c2cccc(OC)c2)cc1 (stereo unspecified) | inconclusive: 0.801% [signal inhibitor] | – |
| CCOC(=O)c1ccccc1NC(=O)Cn1c(=O)n(-c2cccc(C)c2)c(=O)c2c1c1cc(C)ccc1n2C | inconclusive: 2.24% [signal inhibitor] | – |
| COc1ccc2c(C)cc(SCC(=O)Nc3nsc(-c4ccccc4C)n3)nc2c1 | inconclusive: 6.78% [signal inhibitor] | – |
| O=C(NCC(c1ccc2c(c1)OCO2)N1CCOCC1)c1cccc(Cl)c1 (stereo unspecified) | inactive | – |
| Nc1cc(C(=O)O)[nH]c(=O)n1 | inactive: 0.894% [at 11.4 µM, scaled: untreated 0%, proteasome inhibitor 100%] | – |
| Clc1ccc2c(N3CCCC3)ccnc2c1 | – | inconclusive: 6.31 µM [signal inhibitor, partial curve] |
| O=C(NCc1ccc(Cl)cc1)C(=O)NCC(c1cccs1)S(=O)(=O)c1cccs1 (stereo unspecified) | inconclusive: 1.87% [signal inhibitor] | – |
| Clc1cccc(-n2ncc3c(N4CCC(Cc5ccccc5)CC4)ncnc32)c1 | inconclusive: 0.466% [signal inhibitor] | – |
| CCOc1ccc(C(C)(C)C)cc1S(=O)(=O)N1CC(C)OC(C)C1 (stereo unspecified) | inactive | – |
| CCOC(=O)c1c(C)oc2nc(C)nc(NCc3ccc(OC)cc3OC)c12 | inconclusive: 1.83% [signal inhibitor] | – |
| O=C(CSc1nncn2c1cc1sccc12)Nc1ccc(Br)cc1F | inconclusive: 1.53% [signal inhibitor] | – |
| O=C(Cn1c(=O)nc(-c2ccccc2)c2ccccc21)NCc1ccc(Cl)cc1 | inconclusive: 4.06% [signal inhibitor] | – |
| CCc1ccc(NC(=O)CCn2nc(C)c(S(=O)(=O)N3CCCCC3)c2C)cc1 | inconclusive: 0.581% [signal inhibitor] | – |
| CCOC(=O)C1(C)C=C(Nc2cccc(C(=O)O)c2)C(=O)N1c1cccc(C(=O)O)c1 (stereo unspecified) | – | inconclusive: 25.1 µM [signal inhibitor] |
| CCCCc1nn2c(=O)cc(COC(=O)c3ccc(NC(=O)c4ccccc4C)cc3)nc2s1 | inconclusive: -2.54% [signal inhibitor] | – |
| COc1cc2c(cc1OC)C(COc1ccccc1OC)N(C(=O)COc1ccc(Cl)cc1)CC2 (stereo unspecified) | inconclusive: 0.81% [signal inhibitor] | – |
| NC(=O)CSc1nnc(Cn2c(=O)sc3ccccc32)n1CCc1ccccc1 | inactive | – |
| COc1ccc(OC)c(CNC(=O)Cc2ccc(NC(=O)N3CCSc4ncccc43)cc2)c1 | inconclusive: -0.785% [signal inhibitor] | – |
| Cc1cc(C)n2cc(CSc3nc4cc(Cl)ccc4o3)nc2n1 | inactive | – |
| Cc1cc(C)n(CCc2nc3c4ccccc4nc(N4CCN(c5ccccc5)CC4)n3n2)n1 | inactive | – |
